Results reported in PubChem BioAssay AID686971 (National Center for Advancing Translational Sciences (NCATS), 2013).
Hit rate of the full screen: of about 360,000 compounds, about 7,500 (2.1%) were called active. Inconclusive means that the source gave no clear call. Such entries were picked first, then a sample of the others. Calls come from the whole dose curve; as a rule, active = well fitted cell-killing curve with a large enough effect; inconclusive = small, poorly fitted or top-dose-only effect, or effect the other way, or another doubt; inactive = no such curve, though single readings can be large or run the other way. No potency is given beside an inconclusive call; the fits are too rough.

Assay: qHTS for induction of synthetic lethality in tumor cells producing 2HG: qHTS for the HT-1080-IDH1KD cell line;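 for activity, negative = toxicity: 0% = DMSO wells and -100% = cell-free medium wells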
Conditions: HT-1080 IDH1 knockdown viability, ATP luminescence, 48 h; activity, negative = toxicity: at 46.1 µM (top of the series) unless noted
Procedure, shortened: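 Knockdown cells (IDH1KD HT-1080) received compounds 2 h after plating at 750 cells/well and were kept 48 h at 37 °C in 5% FBS RPMI. A CellTiter-Glo luminescence read gave % activity for curve fitting.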
Potency is the fitted concentration of half-maximal effect; tags give direction and shape of the fitted curve.

Compound | Potency | activity, negative = toxicity
O=C(Cc1cccs1)N=Nc1c(O)[nH]c2ccccc12 | inactive | 
CCCCN(C)CCN1C(=O)C2C(C(=O)Nc3ccc(OC)cc3)C3C=CC2(O3)C1C(=O)NC1CCCCC1 (configuration not stated) | inactive | 
CC12CCC(=O)C=C1CCC1C2C(O)CC2(C)C(c3csc(N)n3)CCC12 (configuration not stated) | inconclusive [cytotoxic, single point] | 
CN(C)c1nc(NCc2ccccc2)nc(SCC(=O)Nc2ccc(Cl)c(Cl)c2)n1 | inconclusive [cytotoxic, single point] | 
O=C(NN=Cc1ccccc1OC(F)F)c1ccc(NS(=O)(=O)c2cccs2)cc1 | inconclusive [cytotoxic, partial curve] | 
CCSCc1nnc(SCC(=O)Nc2cccc(SC)c2)n1C | inconclusive [cytotoxic, single point] | 
Cc1ccc2c(c1)nnn2C1CCN(C(=O)c2ccccc2F)CC1 | inactive | 
CN(c1ccc(OCC(=O)Nc2nc3ccccc3s2)cc1)S(=O)(=O)c1ccccc1 | inconclusive [cytotoxic, single point] | 
Cc1cc(-n2c(C)cc(C(=O)CCl)c2C)no1 | active: 7.31 µM | 
COc1ccc(C(CCc2ccc(C)o2)NC(=O)Nc2ccc(OC)cc2OC)cc1 (configuration not stated) | inconclusive [cytotoxic, single point] | 
CCOC(=O)C1=C(C)NC(SC(C)=O)=NC1c1ccc(OC(C)=O)c(OC)c1 (configuration not stated) | inconclusive [cytotoxic, single point] | 
Cc1cccc(/C=N/NC(=O)c2ccc(NC(=O)c3ccc(Cl)cc3)cc2)n1 | active: 18.4 µM | 
CCCCN(C=O)c1c(CC)nc2c(OCc3ccc(C(F)(F)F)cc3)cccn12 | inconclusive [cytotoxic, single point] | 
Cc1ccc(C2CCN(C(=S)Nc3cccc(C)c3)C2)cc1 (configuration not stated) | inactive | 
CCc1ccc(Nc2n[n+](-c3ccccc3)c(-c3ccc(N(CC)CC)cc3)s2)cc1 | inconclusive [cytotoxic, single point] | 
OC(c1ccccc1)(c1ccccc1)C1CCN(CCCOc2ccccc2Cl)CC1 | inconclusive [cytotoxic, single point] | 
O=C(O)c1ccc2c(c1)C1C=CCC1C(c1cc3c(cc1Br)OCO3)N2 (configuration not stated) | inconclusive [cytotoxic, single point] | 
COc1ccc(Oc2c(Cl)cnn(-c3ccc(F)cc3)c2=O)cc1 | inconclusive [cytotoxic, single point] | 
O=c1cc(CCl)nc2sc3ccccc3n12 | inconclusive [cytotoxic, single point] | 
O=C(CN1CCN(Cc2ccc(Cl)cc2)CC1)N/N=C/c1cccc(F)c1 | inconclusive [cytotoxic, partial curve, poor fit] | 
CCc1nc2ccc(C(=O)Nc3cc(-c4ccccc4)ccc3OC)cn2c1N(C)Cc1nccs1 | active: 23.1 µM | 
CCOC(=O)C1(Cc2cccc(Cl)c2)CCCN(C(=O)C2CC2)C1 (configuration not stated) | inactive | 
COc1cc(-c2cnc3c(NC=O)cc(-c4ccccc4Cl)cn23)cc(OC)c1OC | inconclusive [cytotoxic, full curve] | 
OCC1(CCc2ccccc2)CCCN(CCCc2ccccc2)C1 (configuration not stated) | inconclusive [cytotoxic, single point] | 

Compound | Potency | activity, negative = toxicity
CC(=O)Nc1cccc2c1C(=O)N(c1ccc(OC(C)=O)cc1)C2=O | inactive | 
C/C(=C1/SC(N2CCCC2)=NC1=O)c1ccc(Br)cc1 | inconclusive [cytotoxic, single point] | 
COc1cc(OC)c2c(-c3cccc(-c4sccc4C(C)=O)c3)cc(=O)oc2c1 | active: 3.66 µM | 
O=C1NCCc2c1[nH]c1c(Cl)ccc(Cl)c21 | inconclusive [cytotoxic, single point] | 
CCc1ccc(N2CC(O)(c3cccs3)[N+]3=C2SCCC3)cc1 (configuration not stated) | inconclusive [cytotoxic, partial curve] | 
CCCCNc1nc(=S)n(-c2ccccc2)c(C)c1C(C)=O | active: 16.4 µM | 
CCOC(=O)Cn1cc(Cl)c(=O)c(Cl)c1 | inconclusive [rising, partial curve] | 
CC(=O)NCCCNc1ccc([N+](=O)[O-])cc1 | inactive | 
NNC(=O)c1ccc(CSc2nc3ccccc3[nH]2)cc1 |  | inconclusive: -31.6% [cytotoxic]
Nc1[nH]nc2ncc3cc4ccccc4nc3c12 | inconclusive [cytotoxic, single point] | 
CC1CCCC(C)N1C(=O)Cn1cc(/C=C2/C(=O)Nc3ccccc32)c2ccccc21 (configuration not stated) | inconclusive [cytotoxic, partial curve, poor fit] | 
CCOC(=O)C1=CCN(S(=O)(=O)c2ccc(Cl)cc2)C1c1cccc(C)c1 (configuration not stated) | inactive | 
COc1ccc(-n2cnc3cc(NC(=O)c4ccco4)ccc32)cc1 | inactive | 
CCOc1cc(NC(=O)c2ccccn2)c(OCC)cc1NC(=O)c1ccc(Cl)cc1 | inactive | 
CC(OC(=O)CSc1ccc([N+](=O)[O-])cc1)C(=O)NC1CC1 (configuration not stated) | inactive | 
COC(=O)c1ccccc1NC(=S)NC(=O)c1ccccc1C | inconclusive [cytotoxic, single point] | 
Cc1ccc(CC2(C)C(=O)Nc3ccc(OC(F)(F)F)cc32)cc1 (configuration not stated) | inconclusive [cytotoxic, single point] | 
CCCCOCCCNC(=O)C[C@@H]1C[C@@]2(C(=O)OCC)CCCC=C2N(Cc2ccc(Cl)cc2Cl)C1=O | inconclusive [cytotoxic, single point] | 
Cc1cc(C)c(S(=O)(=O)c2ccccc2C)c(Oc2ccccc2)n1 | inactive | 
COc1ccc(Cc2c(C(C)(C)C)nc3cc(C)c(Br)c(C)n23)c(C)c1 | inconclusive [cytotoxic, single point] | 
CCCCNC(=O)C1(NC(=O)Nc2ccc(C)cc2)CCCCC1 |  | inconclusive: -35.4% [cytotoxic]
Cc1cc(C)c(C(N)=O)c(Nc2ccc(F)cc2)n1 | inactive | 
Cc1ccc(C2(c3ccc(C)cc3)CC2C(=O)Nc2ccc([N+](=O)[O-])cc2O)cc1 (configuration not stated) | active: 16.4 µM | 
Cc1cc(NC(=O)c2ccccc2)ncc1NC(=O)c1ccco1 | inconclusive [cytotoxic, partial curve] | 

Compound | Potency | activity, negative = toxicity
Cc1ccc(/C(=N/Nc2ncnc3ccccc23)C(=O)O)cc1 | inconclusive [cytotoxic, partial curve] | 
COc1ccccc1-c1c(C(F)(F)F)oc2cc(OC(=O)c3cccc([N+](=O)[O-])c3C)ccc2c1=O | inconclusive [cytotoxic, single point] | 
CC(C)Cc1ccc(-c2cc3nc(NCC4CC4)ccn3n2)cc1 | inconclusive [cytotoxic, single point] | 
Fc1ccc(-c2ccc(/C=N\n3cnnc3)o2)cc1Cl |  | inconclusive: -21.9% [cytotoxic]
O=C(NC1CCCc2c1cnn2-c1ccc(F)cc1F)c1ccccc1N1CCOCC1 (configuration not stated) | inactive | 
CCOc1ccc2nc(NC(=S)NCc3ccccc3)sc2c1 | active: 3.98 µM | 
COc1cccc(N2CCN(C(=O)c3cn(Cc4ccccc4)nc3-c3cccnc3)CC2)c1 | active: 3.26 µM | 
CCOc1ccc2nc(NCCNC(=O)Nc3ccccc3)c(C#N)cc2c1 | inconclusive [cytotoxic, single point] | 
O=C(Nc1ccnn1C1CCN(C2CCOCC2)CC1)c1cccc(F)c1 | inactive | 
O=C(COc1ncnc2ccc(Br)cc12)NC1CCCC1 | inactive | 
COC(=O)c1[nH]c2ccc(Br)cc2c1NC(=O)CN1CCN(C2CCCCC2)CC1 | active: 18.4 µM | 
COCC(C)n1c(SCc2cc(C(=O)OC)c(C)o2)nc2ccccc2c1=O (configuration not stated) | inactive | 
COc1ccc(C(N)c2csc(Nc3ccc(C(F)(F)F)cn3)n2)cc1 (configuration not stated) | inconclusive [cytotoxic, single point] | 
CC(Oc1ccccc1Cl)C(=O)Nc1ccc(S(=O)(=O)N2CCOCC2)cc1 (configuration not stated) | inconclusive [cytotoxic, single point] | 
CCN(CC)c1ccc2c(c1)oc(=O)c1c(Cl)cc(=O)oc12 | active: 2.59 µM | 
CCOC(=O)c1cc2c(c(-c3cccc(C#Cc4ccc(OC)c(OC)c4)c3)n1)[C@@H](CCO)N(S(=O)C(C)(C)C)C2 (some centres not stated) | inactive | 
Cc1cccc(N(Cc2ccccc2)C(=O)CCl)c1 | active: 1.3 µM | 
COc1ccc(Br)cc1/C=N/NS(=O)(=O)c1ccccc1 | inconclusive [cytotoxic, single point] | 
CCCc1c(-c2ccc(Cl)cc2)ncn1Cc1cccc(-c2ccccc2)c1 | inconclusive [cytotoxic, single point] | 
O=C(Nc1ccc(NC(=O)c2ccc(Cl)cc2Cl)cc1)c1ccc2c(c1)OCO2 | inactive | 
O=C(CSc1ncn[nH]1)N1N=C2/C(=C/c3ccco3)CCCC2C1c1ccco1 (configuration not stated) | inconclusive [cytotoxic, single point] | 
COc1cccc(-c2nc(N3CCCCC3C)c3ccccc3n2)c1O (configuration not stated) | inconclusive [cytotoxic, single point] | 
CC1=C(C(=O)N2CCCCCC2)CC(CC(=O)NCCCN(C)C)C(=O)N1Cc1ccc(C(C)(C)C)cc1 (configuration not stated) | inconclusive [cytotoxic, single point] | 
COc1ccc(Cl)cc1/C=C/c1ccc2cccc(O)c2n1 | inconclusive [cytotoxic, single point] | 
